Assay results from US7358278B2, “Cellular phosphorylation potential enhancing compositions preparation and use thereof” (priority 1994, dated 2008).

Tested on: GT1-7 cells
Assay: H2O2 (oxidative stress) toxicity, neuroprotection, MTT dye reduction assay
Details: 500 micromolar H2O2, FIG. 4A

## NC(=O)c1cccnc1 [Nicotinamide, nicotinamide]
  protection against oxidative stress (in words): nearly complete dose dependent protection

## CN(CC(=O)O)C(=N)N [Creatine, creatine]
  protection against oxidative stress (in words): nearly complete dose dependent protection
